The campaign covered roughly 310,000 compounds. About 14,000 (4.5%) showed an effect of 50% or more. The effect is printed as a negative number. The list shows a part of the results.
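Further: peak tail current of the secondary pulse compared with the same well before compound.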

The assay deals with human ether-à-go-go-related gene (hERG) potassium channel (human, UniProt Q12809). Description: primary screen, population patch clamp on CHO cells stably expressing hERG.
Chain of human ether-à-go-go-related gene (hERG) potassium channel (Q12809 whole entry, looked up): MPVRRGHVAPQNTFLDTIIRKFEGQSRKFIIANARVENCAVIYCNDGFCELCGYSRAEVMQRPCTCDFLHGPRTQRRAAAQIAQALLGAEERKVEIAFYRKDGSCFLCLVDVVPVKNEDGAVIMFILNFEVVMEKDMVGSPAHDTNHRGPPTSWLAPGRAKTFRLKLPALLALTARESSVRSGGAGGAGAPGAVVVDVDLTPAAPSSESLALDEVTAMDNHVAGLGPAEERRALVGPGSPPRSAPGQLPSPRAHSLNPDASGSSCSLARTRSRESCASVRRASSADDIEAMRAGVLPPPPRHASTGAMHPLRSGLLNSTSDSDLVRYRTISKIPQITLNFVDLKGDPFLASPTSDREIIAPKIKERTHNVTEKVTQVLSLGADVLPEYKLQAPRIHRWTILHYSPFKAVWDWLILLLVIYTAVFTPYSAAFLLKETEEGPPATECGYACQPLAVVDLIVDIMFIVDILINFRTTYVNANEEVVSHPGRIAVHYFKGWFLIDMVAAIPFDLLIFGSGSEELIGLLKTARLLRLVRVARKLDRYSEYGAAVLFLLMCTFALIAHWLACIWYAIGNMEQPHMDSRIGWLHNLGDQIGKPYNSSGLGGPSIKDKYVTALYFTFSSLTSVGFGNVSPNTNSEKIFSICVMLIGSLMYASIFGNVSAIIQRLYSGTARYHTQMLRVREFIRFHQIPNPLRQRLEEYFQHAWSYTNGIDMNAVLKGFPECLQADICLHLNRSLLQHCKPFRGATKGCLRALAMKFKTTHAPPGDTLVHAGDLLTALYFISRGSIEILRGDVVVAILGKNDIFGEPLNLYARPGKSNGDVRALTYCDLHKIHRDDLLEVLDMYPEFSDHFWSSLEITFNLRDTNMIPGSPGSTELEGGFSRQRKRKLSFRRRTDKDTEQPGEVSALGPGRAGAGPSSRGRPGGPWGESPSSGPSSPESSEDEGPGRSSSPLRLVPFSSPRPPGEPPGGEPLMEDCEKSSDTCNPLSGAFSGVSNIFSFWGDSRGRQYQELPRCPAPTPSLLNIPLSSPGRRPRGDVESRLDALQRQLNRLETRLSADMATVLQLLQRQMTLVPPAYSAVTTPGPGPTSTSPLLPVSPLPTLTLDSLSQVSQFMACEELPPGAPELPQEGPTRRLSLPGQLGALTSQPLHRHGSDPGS
As to `Cc1ccc(N2CC(=O)N(NC(=O)Nc3ccc(Cl)c(Cl)c3)CC2=O)cc1`, the “hERG current change (%, negative = inhibition) at 10uM” value is on record as 12.2%.
The value for `O=C(C1=C(O)C(=O)N(CCN2CCOCC2)C1c1ccc(F)cc1)c1cc2ccccc2o1` (stereo not shown) was 2.59%.
The result for `CC(C)c1ccc(C(C(=O)NC2CCCCC2)N(C(=O)c2ccccn2)c2cccnc2)cc1` (stereo not shown) reads 11.5%; that for `COc1ccccc1CNC1CCCc2ccccc21.O=C(O)C(=O)O` (stereo not shown), -6.19%.
The result for `Cc1ccc(NC(=O)c2cc(C(C)(C)C)nn2Cc2ccccc2)cc1` reads -0.692%; that for `COc1cc(NC(=O)C(=O)Nc2ccc3nc4n(c(=O)c3c2)CCCCC4)cc(OC)c1OC`, -1.55%.
Take `Cc1ccc(CCNC(=O)CN2CCN(Cc3ccccc3F)C2=O)cc1`: the “hERG current change (%, negative = inhibition) at 10uM” value is listed as -8.3%.
The result for `Cc1cccc2cc(C3CC(c4cccs4)=NN3C(=O)CCC(=O)O)c(Cl)nc12` (stereo not shown) reads 1.57%.
Take `COc1cc2nc(CSc3ncn[nH]3)[nH]c(=O)c2cc1OC`: the “hERG current change (%, negative = inhibition) at 10uM” value is recorded as 15.3%.
Consider `CCOc1ccc(-c2nnn(CC(=O)NCc3ccc(F)cc3)n2)cc1OCC`, for which the “hERG current change (%, negative = inhibition) at 10uM” value came out at 2.92%.
With `CCC(C)NC(=O)CCSc1ccc(C)cc1` (stereo not shown), the “hERG current change (%, negative = inhibition) at 10uM” value was determined as 3.4%.
The result for `CC[C@@](C)(NS(=O)(=O)OCC(Cl)(Cl)Cl)c1ccccc1` reads -21.2%.
Consider `CCNC(=O)C1OC(n2cnc3c(N)ncnc32)C(O)C1O` (stereo not shown), for which the “hERG current change (%, negative = inhibition) at 10uM” value is 2.93%.
The value for `CCOC(=O)c1sc(SCC(=O)Nc2ccc(N(C)C)cc2)nc1N` was -13%; that for `O=C(Nc1cccnc1Cl)c1ccc(=O)oc1` was 7.47%.
The value for `Cc1ccccc1NC(=O)c1cn2c(nc3ccccc32)c(C#N)c1C` was 2.11%; that for `CC(=O)Nc1cccc(NC(=O)CSc2nc(=O)n(CCCN3CCOCC3)c3c2CCC3)c1` was 0.499%.
The result for `Nc1ccc(-n2cnc3cc([N+](=O)[O-])ccc32)cc1` reads 1.35%.
For `COc1cc(C2C(C(C)=O)=C(O)C(=O)N2CCN(C)C)ccc1O` (stereo not shown), the “hERG current change (%, negative = inhibition) at 10uM” value is given as 8.39%.
`Cc1c(C(=O)N(C)c2ccccc2)oc2c1C(O)CC(C)(C)C2` (stereo not shown): the “hERG current change (%, negative = inhibition) at 10uM” value is reported as 11.3%.
The value for `COc1ccc(NC(=O)CCC(=O)N2CCOCC2)c([N+](=O)[O-])c1` was -4.86%; that for `COc1ccc(Nc2cc3n(c(=O)n2)CCc2cc(OC)c(OC)cc2-3)cc1` was 4.8%.
The value for `CCCn1cnc2c(sc3nc4c(cc32)CSC(C)(C)C4)c1=O` was -2.61%; that for `CS(=O)(=O)c1ccc(-c2cccc(NC(=O)c3ccc(Br)o3)c2)nn1` was 3.74%.
The result for `COC(=O)C1=C(C)N(C)C(=O)NC1c1ccc(O)c(OC)c1` (stereo not shown) reads 3.84%; that for `CCCCN1C(=O)NC(=O)/C(=C/c2cnc(SC)nc2)C1=O`, 5.29%; that for `O=C(NCc1cccnc1)c1cc([N+](=O)[O-])ccc1N1CCOCC1`, -37.6%.
As to `COc1ccc(NS(=O)(=O)c2cc(C(=O)O)ccc2C)cc1`, the “hERG current change (%, negative = inhibition) at 10uM” value turned out to be 3.19%.
Turning to `Cc1ccc(C2=NN=C(NC(=O)CSc3nncn3C)SC2)cc1`, the “hERG current change (%, negative = inhibition) at 10uM” value is given as 3.58%.
On to `CCCCCOc1ccc(/C=N/NC(=O)c2nnn(-c3nonc3N)c2CN2CCCCCC2)cc1`, for which the “hERG current change (%, negative = inhibition) at 10uM” value was found to be 11.1%.
The value for `CN(C(=S)Nc1ccc(SC(F)F)cc1)C(c1ccccc1)c1ccccc1` was -0.128%.
As to `COc1cccc(NC(=O)COc2ccccc2)c1`, the “hERG current change (%, negative = inhibition) at 10uM” value was determined as 7.8%.
The result for `Cc1cc(C)c(NC(=O)CS(=O)CC(=O)NCCN2CCCCCC2)c(C)c1` (stereo not shown) reads 23.7%.
The value for `Cc1[nH]nc(Nc2ccccc2)c1[N+](=O)[O-]` was -3.89%; that for `Cc1ccc(Cn2ncc3c(NN)ncnc32)cc1` was 10.3%; that for `CNC(=O)c1c(C)noc1C` was 24.8%.
The value for `N#CCSc1nc(-c2ccccc2)nc2ccccc12` was 7.83%; that for `Cc1cc(C(=O)OCC(=O)NC2CCS(=O)(=O)C2)c(C)n1-c1ccccc1` (stereo not shown) was -6.8%.
Regarding `COc1ccc(NC(=O)Nc2cccc(C)n2)cc1`, the “hERG current change (%, negative = inhibition) at 10uM” value worked out at 4.5%.
The value for `CCN(CC)S(=O)(=O)c1ccc(S(=O)(=O)NCC2CCCO2)cc1` (stereo not shown) was 3.86%; that for `COc1ccc(-c2nnc(SCC(=O)Nc3ccc(Cl)cc3)n2C)cc1` was 22.1%; that for `CCCC(C(=O)N1CCOCC1)N1C(=O)C2C3C=CC(C3)C2C1=O` (stereo not shown) was 15.1%.
The value for `COc1ccccc1C(=O)Nc1ccc(OCC(=O)N2CCCCC2)cc1` was -2.87%.

The record behind these values is publication PMC4336329 (PLoS ONE, 2015).
